Reference: publication PMC4336329 (PLoS ONE, 2015)
Among all 310,000 compounds or so, about 2,200 (0.71%) showed an effect of 50% or more. The effect is printed as a negative number. The list shows a part of the results.

molecular target: human ether-à-go-go-related gene (hERG) potassium channel (human, UniProt Q12809); experiment: primary screen, population patch clamp on CHO cells stably expressing hERG
Sequence (Q12809 whole entry, looked up): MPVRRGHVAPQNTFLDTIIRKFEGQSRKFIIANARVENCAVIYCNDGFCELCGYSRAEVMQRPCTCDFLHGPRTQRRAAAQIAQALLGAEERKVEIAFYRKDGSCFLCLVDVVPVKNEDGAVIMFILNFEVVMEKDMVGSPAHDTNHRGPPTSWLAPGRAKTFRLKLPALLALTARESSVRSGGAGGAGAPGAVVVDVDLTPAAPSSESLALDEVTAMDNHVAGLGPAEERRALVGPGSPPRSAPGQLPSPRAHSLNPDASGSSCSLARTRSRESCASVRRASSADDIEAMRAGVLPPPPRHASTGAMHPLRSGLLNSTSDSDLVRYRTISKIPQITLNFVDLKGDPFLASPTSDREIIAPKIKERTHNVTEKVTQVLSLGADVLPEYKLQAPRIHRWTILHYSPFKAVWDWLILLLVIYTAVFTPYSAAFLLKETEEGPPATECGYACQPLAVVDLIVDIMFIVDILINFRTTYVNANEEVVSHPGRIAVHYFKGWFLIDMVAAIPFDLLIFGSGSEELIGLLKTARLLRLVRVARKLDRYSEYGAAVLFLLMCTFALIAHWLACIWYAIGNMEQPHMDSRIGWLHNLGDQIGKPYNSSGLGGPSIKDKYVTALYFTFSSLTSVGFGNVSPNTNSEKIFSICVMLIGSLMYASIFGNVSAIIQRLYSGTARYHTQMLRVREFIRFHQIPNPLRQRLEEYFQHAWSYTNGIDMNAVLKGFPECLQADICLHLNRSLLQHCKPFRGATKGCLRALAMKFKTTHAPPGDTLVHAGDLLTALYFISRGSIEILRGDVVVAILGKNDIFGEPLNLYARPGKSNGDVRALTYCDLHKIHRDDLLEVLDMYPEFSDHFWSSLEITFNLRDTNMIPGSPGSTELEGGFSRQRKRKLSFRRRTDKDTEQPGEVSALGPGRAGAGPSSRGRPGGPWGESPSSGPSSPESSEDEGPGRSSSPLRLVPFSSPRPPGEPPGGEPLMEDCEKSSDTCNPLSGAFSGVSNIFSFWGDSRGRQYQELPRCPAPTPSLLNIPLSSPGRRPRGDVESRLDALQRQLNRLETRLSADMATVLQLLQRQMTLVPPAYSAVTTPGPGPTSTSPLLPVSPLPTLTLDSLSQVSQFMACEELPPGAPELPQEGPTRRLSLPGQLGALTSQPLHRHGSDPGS

| SMILES | hERG current change (%, negative = inhibition) at 1uM [%] |
| --- | --- |
| CC(C)Oc1ccc(CN2CCCC(CO)(Cc3ccccc3)C2)cc1CO (stereo not shown) | 3.6 |
| Cc1ccc(C(c2c(C)nn(-c3ccccc3)c2N)c2c(C)nn(-c3ccccc3)c2N)cc1 | 3.47 |
| O=C(CN1CCOCC1)N1CCN(c2nnc(-c3ccccc3)c3ccccc23)CC1 | 11.7 |
| COC(=O)N/N=C/c1cn(CCOc2cccc(OC)c2)c2ccccc12 | 12.1 |
| CC(=O)Cc1nsc(NC(=O)c2csc3c2CCCC3)n1 | -2.69 |
| Cc1ccc(CNC(=O)Cn2ccc3ccccc3c2=O)o1 | 12.9 |
| CCOc1ccc(OCc2nnc(SCC(=O)NC3CCS(=O)(=O)C3)n2-c2ccc(Cl)cc2)cc1 (stereo not shown) | -7.47 |
| CCc1nc(C)cn1S(=O)(=O)c1ccc(Cl)c(Cl)c1Cl | 3.77 |
| CCOC(=O)C1CCCN(c2cc(NCCCO)c([N+](=O)[O-])c3nonc23)C1 (stereo not shown) | 3.9 |
| COc1ccccc1C1CC(=O)Nc2c1c(=O)n(C)c(=O)n2C (stereo not shown) | 12.4 |
| O=C(CNC(=O)c1ccco1)N=Nc1c(O)[nH]c2ccc(Br)cc12 | 15.5 |
| CCOC(=O)N1CCC(N(CCN(C)C)C(=S)Nc2cccc(SC)c2)CC1 | 5.06 |
| CC1=NNC(=O)C1C(c1ccc(F)cc1)C(C#N)C#N (stereo not shown) | -6.22 |
| Cc1ccc(/C=C/C(=O)OCC(=O)N2CC(=O)Nc3ccccc32)o1 | 5.93 |
| CCCc1ncc(CN2CCCC(C(=O)Nc3ccc(-c4cccc(OC)c4)cc3)C2)cn1 (stereo not shown) | -1.02 |
| CCOc1cc(C2CC(=O)NC(SCC)=C2C#N)ccc1O (stereo not shown) | 6.68 |
| Cc1oc(/N=C/c2ccccc2O)c(C#N)c1C | 13.3 |
| Cc1cc(C)nc(NC(=O)c2c(F)c(F)c(F)c(C(=O)Nc3cc(C)cc(C)n3)c2F)c1 | 7.91 |
| CCOC(=O)c1[nH]c2ccc(C)cc2c1N=C(C)N(C)C | 5.14 |
| CC1CCc2[nH]c3ccc(C(=O)N(C)CC(=O)Nc4cccc(F)c4)cc3c2C1 (stereo not shown) | -3.88 |
| CCOc1cc(N2CCOCC2)c(OCC)cc1NC(=O)C1=COCCO1 | 3.4 |
| Cc1cc(Br)ccc1OCCOCCN1CCCC1.O=C(O)C(=O)O | -9.41 |

| SMILES | hERG current change (%, negative = inhibition) at 1uM [%] |
| --- | --- |
| Cn1c(SCC2CCCO2)nnc1-c1ccncc1 (stereo not shown) | 9.85 |
| CCOC(=O)Cn1c(=O)cc(C)c2cccc(C)c21 | 13 |
| CC(=O)N1C(c2ccccc2O)C[C@]2(C)CC(=O)NC12 (stereo partly shown) | 8.55 |
| CC(C)C(=O)Nc1cccc(NC(=O)c2ccc([N+](=O)[O-])cc2Cl)c1 | 2.88 |
| CCc1noc(C)c1C(=O)OCC(=O)NC(=O)c1ccccc1 | 5.47 |
| O=C(CSCc1nc2ccccc2[nH]1)Nc1ccc2ccccc2c1 | 5.23 |
| Cc1ccc(OCCn2cc(/C=C(\C#N)C(=O)NCC3CCCO3)c3ccccc32)cc1C (stereo not shown) | 1.61 |
| O=C(CNc1ccccc1F)Nc1cccc2ccccc12 | 7.66 |
| O=C(Nc1nnc(-c2ccncc2)o1)c1cccc(N2C(=O)CCC2=O)c1 | 6.75 |
| C/C(=N\NC(=O)c1ccn[nH]1)c1cn(C)nc1C | 3.79 |
| CC(CC(=O)N1CCN(c2ccccc2)CC1)S(=O)(=O)c1ccc2c(c1)NC(=O)CS2 (stereo not shown) | 5.7 |
| CCOc1ccccc1C1N=C(c2ccc(OC)cc2)CC(c2ccccc2O)N1 (stereo not shown) | 7.42 |
| CCOC(=O)C1(N(CC)CC)Sc2cc(C)ccc2NC1=O (stereo not shown) | 15.3 |
| CC(C)N1CC2=C(C1=O)C(c1ccc(O)cc1)NC(=O)N2C (stereo not shown) | -4.58 |
| COc1cc(/C=C/C(=O)Nc2nnc(C(C)(C)C)s2)cc(OC)c1OC | 4.71 |
| O=C(Nc1ccccc1N1CCCCC1)c1ccc(-c2cccc(Cl)c2)o1 | 22.8 |
| CC(C)CN(C(=O)c1cc2ccccc2o1)c1c(N)n(CC(C)C)c(=O)[nH]c1=O | 11.5 |
| Cc1cc(=O)oc2c1c(C)nn2-c1cccc(Cl)c1 | 6.41 |
| Cc1ccccc1C(=O)NC1CCN(CC(=O)NCc2ccccc2)CC1 | -1.64 |
| COCCCN1C(=O)N(c2ccc(F)cc2)C(=O)C1CC(=O)Nc1ccc(OC)cc1 (stereo not shown) | 14.8 |
| O=C(Nc1ccc(NC(=O)c2ccccc2Br)cc1)c1ccccc1 | 8.45 |
| NNC(=O)CCc1ccc(S(=O)(=O)N2CCOCC2)cc1 | 10.8 |

| SMILES | hERG current change (%, negative = inhibition) at 1uM [%] |
| --- | --- |
| O=C(c1ccccc1)N1CCN(C(=O)c2cc3ccccc3oc2=O)CC1 | 6.86 |
| CC1CNCCN1S(=O)(=O)c1cccc2cnccc12.Cl (stereo not shown) | 5.37 |
| O=c1c2c(nc3cc(-c4ccc(F)cc4)[nH]n13)CCC2 | 5.2 |
| Cc1ccnc(N2CCC(C(=O)NC3CCCCCC3)CC2)n1 | 4.96 |
| O=C(Nc1ccc(N2CCOCC2)c(S(=O)(=O)Nc2ccc(Cl)cc2)c1)c1cnccn1 | 5.16 |
| O=C(O)CC/C(=N/NC(=O)CNC(=O)c1ccc2c(c1)OCCO2)c1ccccc1 | 20.8 |
| COc1ccc(C(=O)N/N=C2\CCS(=O)(=O)c3ccc(F)cc32)cc1OC | 3.79 |
| O=C(NNC(=S)NC(=O)c1cccs1)c1ccc(O)cc1 | 12.1 |
| CC(C)NC(=O)c1c(CSc2ccccc2)noc1C(=O)NCc1ccccc1 | 6.02 |
| Cc1cccc(NC(=S)NCC(c2cccnc2)N2CCOCC2)c1C (stereo not shown) | 6.67 |
| O=C(COC(=O)c1cc([N+](=O)[O-])ccc1N1CCOCC1)Nc1c(Cl)cccc1Cl | 8.72 |
| COCCCNC(=O)c1ccccc1SC | 15.7 |
| CCOC(=O)CCN(Cc1cccs1)S(=O)(=O)c1ccc(Cl)cc1 | -17.4 |
| O=C(CS(=O)(=O)c1ccccc1)Nc1ncc([N+](=O)[O-])s1 | 8.32 |
| O=C(NCc1ccco1)c1ccc(N2CCCCC2)c([N+](=O)[O-])c1 | 2.27 |
| CCCOc1ccc(C(=O)N2CC3(CC(c4cccc(NC(=O)[C@@H]5CCC(=O)N5)c4)=NO3)C[C@H]2C(=O)NC2(C(N)=O)CC2)cc1 (stereo partly shown) | 1.17 |
| Cl.O=C(NCC(c1cccs1)N1CCOCC1)c1ccccc1NS(=O)(=O)c1cccc([N+](=O)[O-])c1 (stereo not shown) | 4.75 |
| COc1cc(OC)cc(C(=O)NC(=S)N2CCCCC2c2cccnc2)c1 (stereo not shown) | 9.33 |
| C=CCSc1nnc2c(n1)OC=Nc1ccccc1-2 | -1.32 |
| O=C(CSc1nnc(-c2ccncc2)n1Cc1ccccc1)NC1CCCc2ccccc21 (stereo not shown) | -3.99 |
| C=CCC1(CC=C)CCCN1C(=O)c1cc(COc2ccc(C)nc2)on1 | 4.95 |
| Cc1ccc(-c2nnc(NCc3nc4ccccc4[nH]3)c3ccccc23)cc1S(=O)(=O)N(C)C | 14.9 |

| SMILES | hERG current change (%, negative = inhibition) at 1uM [%] |
| --- | --- |
| O=C(CCC(=O)N1CCN(c2cccc(Cl)c2)CC1)N1CCN(c2ccccc2)CC1 | -15.3 |
| O=C(NC(c1ccccc1)c1ccccc1)c1ccc(=O)[nH]n1 | 10.8 |
| CCOC(=O)c1c(S(=O)(=O)NC2CCN(C(=O)OCC)CC2)c(C)n(C)c1C | 8.35 |
| C[C@@H]1NC(=O)/C(=C\c2ccccc2Cl)NC1=O | 11.7 |
| CCN(CC)c1ccc2cc(C#N)c(=O)oc2c1 | 12.2 |
| N#Cc1c(-c2ccc(F)cc2)nc2n(c1=O)CCS2 | 1.87 |
| CC(Oc1ccc(Br)cc1)c1nc2c3ccccc3nc(=S)n2[nH]1 (stereo not shown) | 12 |
| COC(=O)c1c(C(=O)OC)c2n(c1C)CCC2 | 0.0876 |
| COC(=O)CSc1nc(N2CCOCC2)c2c(c1C#N)CC(C)(C)OC2 | 7.76 |
| CCN(CC)CCCNC(=S)N(Cc1cccnc1)Cc1cc2cccc(C)c2[nH]c1=O | 5.28 |
| O=S(=O)(c1ccc(Cl)cc1)N1CN2CCN(C2)C1 | 11.6 |
| Cc1[nH]c(C)c(S(=O)(=O)N2CCN(c3ccccc3)CC2)c1C(=O)N1CCCC1 | 7.68 |
| Cn1c(=NC(=O)COc2ccccc2)sc2cc(F)cc(F)c21 | 11.9 |
| CCc1ccc(NC(=O)CCc2nnc3ccc(N4CCC5(CC4)OCCO5)nn23)cc1 | 5.95 |
| CSCCC1C(C#N)=C(N)Oc2n[nH]c(-c3cccs3)c21 (stereo not shown) | 3.2 |
| CN(CCC#N)C(=O)c1ccc(CNS(=O)(=O)c2ccc(F)cc2)cc1 | 14.7 |
| CN(C)c1ccccc1C(=O)N1CCCC(C(=O)c2ccc3ccccc3c2)C1 (stereo not shown) | 5.96 |
| Brc1ccc(CN2CCNCC2)s1 | 5.34 |
| CSc1ccc(C(C(C(=O)c2cccs2)N2CCOCC2)N2CCOCC2)cc1 (stereo not shown) | 3.73 |
| COc1ccc(N2CCN(C(=O)c3cn(CC4CCCCC4)nn3)CC2)cc1 | 12.4 |
| Cc1cccn2c(=O)c(C=C(C#N)C#N)c(N3CCN(c4ccccc4)CC3)nc12 | 10.7 |
| CC(=O)NN1C(=O)/C(=C/c2ccc(C(C)C)cc2)SC1=S | 3.99 |
